Measurements published in PubChem BioAssay AID1346428 (National Center for Advancing Translational Sciences (NCATS), 2018).
Screen size: about 48,000 compounds; about 1,200 (2.5%) were called active. Another 2% or so got no clear call; they are omitted.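 How the source made its calls: active means activation of at least 60% and not above a set upper limit (about 1 call in 100 departs from these limits); inconclusive means activation of 40% to 60%, or above that upper limit; inactive means activation under 40%.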 The list shows a part of the results.

target: Probable G-protein coupled receptor 32 (Homo sapiens) (UniProt O75388); assay: qHTS for Agonists of Human Resolvin D1 Receptor DRV1; settings: CHO-K1 GPR32 beta-arrestin PathHunter luminescence, 90 min; at 76.9 µM; stronger effect = higher value; zero percent set by DMSO-only wells; further: 0% is about no effect
Method in brief: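 Engineered CHO-K1 line co-expressing GPR32-ProLink and EA-beta-arrestin. Compound treatment lasted 90 min at 37 °C. Luminescence was recorded after 1 h with substrate at ambient temperature, relative to DMSO basal wells.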

Chain of UniProt O75388 (O75388 whole entry, looked up): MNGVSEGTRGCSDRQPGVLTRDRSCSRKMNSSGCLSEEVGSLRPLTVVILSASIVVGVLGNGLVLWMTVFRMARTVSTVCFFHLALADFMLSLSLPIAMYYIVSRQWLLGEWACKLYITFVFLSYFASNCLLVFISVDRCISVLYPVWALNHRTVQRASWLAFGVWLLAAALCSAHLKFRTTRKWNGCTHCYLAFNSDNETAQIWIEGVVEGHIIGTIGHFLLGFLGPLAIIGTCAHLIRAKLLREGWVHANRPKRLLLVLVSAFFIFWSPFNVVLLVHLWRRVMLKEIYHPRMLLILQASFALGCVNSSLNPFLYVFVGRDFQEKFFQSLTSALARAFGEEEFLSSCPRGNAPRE

Row | Compound | activation
1 | Cc1ccc(-c2nc3cccc(C)n3c2Nc2ccc3c(c2)OCCO3)cc1 | inactive: -23.6%
2 | COc1ccc(N(C)C(=O)Cn2cnc3sc(C)c(S(=O)(=O)N4CCN(c5ncccn5)CC4)c3c2=O)cc1 | inactive: -27.8%
3 | O=C(NCCS(=O)(=O)N1CCN(c2cccc(Cl)c2)CC1)C(c1ccccc1)c1ccccc1 | inactive: -25.5%
4 | CCOCCCn1c(=N)c(C(=O)NC2CCCCC2)cc2c(=O)n3ccccc3nc21 | inactive: 21.3%
5 | CCc1nn(CC(=O)NCc2ccccc2)c(=O)c2cccn12 | inactive: -4.93%
6 | CCOC(=O)c1ccc(N2C(=O)c3[nH]nc(-c4ccc(OC)cc4)c3C2c2cccc(O)c2)cc1 (stereo unspecified) | inactive: -7.33%
7 | CCc1cccc(NC(=O)CSc2ncc3c(n2)-c2cc(Cl)ccc2N(C)S3(=O)=O)c1 | inactive: -14.1%
8 | COc1ccccc1CNC(=O)CCn1c(=O)c2ccccc2n(CC(=O)Nc2cc(Cl)ccc2C)c1=O | inactive: -2.53%
9 | COc1ccccc1NC(=O)Cn1nnc(C(=O)NCc2cccs2)c1N | inactive: 43%
10 | Cc1ccc(Cl)cc1N1CCN(C(=O)Cn2nc(C)c3sc4ccccc4c3c2=O)CC1 | inactive: -7.63%
11 | Cc1ccc(C2NC(=O)c3n[nH]c(-c4cccs4)c32)cc1 (stereo unspecified) | active: 120%
12 | C[C@]12C=CC(=O)C=C1[C@@H](F)C[C@@H]1[C@@H]2[C@@H](O)C[C@@]2(C)[C@H]1CC[C@]2(O)C(=O)CO | inactive: 8.03%
13 | CCC(C)NC(=O)CCSc1nc(-c2ccc3c(c2)OCO3)cc(C(F)(F)F)n1 (stereo unspecified) | inactive: -0.965%
14 | COc1ccc(NC(=O)CCS(=O)(=O)c2nc(-c3ccc4c(c3)OCO4)cc(C(F)(F)F)n2)cc1OC | inactive: -8.68%
15 | O=C(Nc1cccc(C(=O)OCc2cc(=O)n3c4c(sc3n2)CCCC4)c1)c1cccc(F)c1 | inactive: -17.4%
16 | COC(=O)c1c(NC(=O)Cc2coc3cc(C)cc(C)c23)sc2c1CCC2 | inactive: 6.45%
17 | COc1cc(C(=O)NCc2ccc3c(c2)CCN3C(=O)c2ccc(Cl)cc2)cc(OC)c1OC | inactive: -21.7%
18 | Cc1ccc(NC(=O)CSc2nc(=O)n(Cc3ccccn3)c3c2CCC3)cc1F | inactive: 18.8%
19 | Cc1ccc(NC(=O)CSc2nc3ccc(NC(=O)c4ccco4)cc3s2)cc1 | active: 98.5%
20 | COc1ccc(C2CC(=O)c3cc(-c4nc(-c5cccc([N+](=O)[O-])c5)cs4)c(=O)n(-c4cccc(C)c4)c3C2)cc1 (stereo unspecified) | inactive: 12.5%
21 | COCCNC(=O)c1c(NC(=O)c2cc(=O)c3cc(C)cc(C)c3o2)sc2c1CCCC2 | inactive: -14.4%
